# Data: article PMC4336329 (PLoS ONE, 2015)
# Among all 310,000 compounds or so, about 2,200 (0.71%) showed an effect of 50% or more. The effect is printed as a negative number. Some of the results follow.
# Target: human ether-à-go-go-related gene (hERG) potassium channel (human, UniProt Q12809)
# Assay: primary screen, population patch clamp on CHO cells stably expressing hERG
# Sequence of human ether-à-go-go-related gene (hERG) potassium channel (Q12809 whole entry, looked up): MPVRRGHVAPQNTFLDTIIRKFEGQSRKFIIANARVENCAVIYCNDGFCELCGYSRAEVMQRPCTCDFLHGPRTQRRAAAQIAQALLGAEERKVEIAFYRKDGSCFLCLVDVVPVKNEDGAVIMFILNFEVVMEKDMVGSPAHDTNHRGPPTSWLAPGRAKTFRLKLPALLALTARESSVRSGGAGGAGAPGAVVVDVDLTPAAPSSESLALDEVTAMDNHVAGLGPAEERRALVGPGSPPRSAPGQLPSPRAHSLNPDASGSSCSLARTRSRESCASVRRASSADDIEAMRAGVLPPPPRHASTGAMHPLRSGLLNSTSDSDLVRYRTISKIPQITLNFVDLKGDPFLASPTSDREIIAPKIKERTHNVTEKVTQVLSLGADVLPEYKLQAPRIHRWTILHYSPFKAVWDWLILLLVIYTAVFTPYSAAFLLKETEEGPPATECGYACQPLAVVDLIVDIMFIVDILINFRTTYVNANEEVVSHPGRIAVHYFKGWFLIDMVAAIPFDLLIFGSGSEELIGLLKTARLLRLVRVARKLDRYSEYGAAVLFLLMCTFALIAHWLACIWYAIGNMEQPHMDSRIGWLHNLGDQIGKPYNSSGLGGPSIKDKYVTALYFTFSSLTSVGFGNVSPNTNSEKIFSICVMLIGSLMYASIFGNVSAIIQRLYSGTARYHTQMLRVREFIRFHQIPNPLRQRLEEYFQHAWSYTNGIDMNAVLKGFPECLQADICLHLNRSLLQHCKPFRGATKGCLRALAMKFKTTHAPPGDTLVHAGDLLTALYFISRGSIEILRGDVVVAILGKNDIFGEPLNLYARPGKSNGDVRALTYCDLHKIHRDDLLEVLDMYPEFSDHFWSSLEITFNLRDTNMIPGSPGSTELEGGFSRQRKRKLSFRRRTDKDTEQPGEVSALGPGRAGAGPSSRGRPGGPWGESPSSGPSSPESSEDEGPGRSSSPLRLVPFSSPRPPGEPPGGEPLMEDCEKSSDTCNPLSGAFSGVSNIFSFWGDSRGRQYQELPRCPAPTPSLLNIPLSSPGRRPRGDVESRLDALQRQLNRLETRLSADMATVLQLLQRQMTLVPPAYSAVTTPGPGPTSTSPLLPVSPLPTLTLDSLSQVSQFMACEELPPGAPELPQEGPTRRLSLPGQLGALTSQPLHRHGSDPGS
row,SMILES,"hERG current change (%, negative = inhibition) at 1uM [%]"
1,CN(C)c1ccnc(-n2cccc2/C=N/OCc2ccc(F)cc2Cl)c1C#N,8.59
2,COC(=O)c1[nH]c2cccc(Cl)c2c1NC(=O)CN1CCCCC1C (centres unmarked),9.88
3,COc1cc(NC(=O)CN2CCC(C)CC2)c(C)cc1[N+](=O)[O-],10.6
4,COC(=O)c1sccc1NC(=O)Nc1ccc(OC)cc1,13.1
5,CC(C)Cc1nnc(NC(=O)CCC(=O)N2CCC(C)CC2)s1,7.51
6,Cc1ccc(CC2CC(=O)N(C(Cc3ccccc3)C(=O)O)C2=O)cc1 (centres unmarked),16.8
7,CCOc1ccc(CCNC(=O)COC(=O)/C=C/c2ccco2)cc1OCC,15.9
8,Cc1ccc(NC(=O)C(Cc2ccccc2)NC(=O)OCc2ccccc2)cc1C (centres unmarked),3.75
9,O=C(NCC(=O)N(c1ccccc1)C(C(=O)NC1CCCCC1)c1ccncc1)c1ccco1 (centres unmarked),7.91
10,CCN1CCN(Cc2ccc(NC(=O)Nc3ccccc3Cl)cc2)CC1,5.87
11,Cc1ccc(C(=O)O/N=C/c2c(Cl)n(C)c3ccccc23)cc1,7.26
12,COc1ccc(NC(=O)N2CCc3cc(OC)c(OC)cc3C2)cc1,9.53
13,CCCCN1CC[C@H]2C=CC[C@@H](C(=O)N3CCOCC3)[C@H]2C1=O,19.6
14,Cc1nc2c3ccccc3nc(NNC(=O)CCC(=O)NC3CCCC3)n2n1,-25.4
15,C=CCNC(=O)c1onc(CSc2ccc(F)c(F)c2)c1C(=O)O,24.7
16,CC1=[N+](C)N(c2ccccc2)C(=O)C1N=Cc1c(Cl)cccc1Cl (centres unmarked),-6.43
17,O=c1c2ccccc2nc(-c2ccco2)n1-c1ccc(Br)cc1,9.62
18,O=C1/C(=C\c2cc([N+](=O)[O-])ccc2O)SC(=S)N1Cc1ccc(Cl)cc1,27.5
19,Cc1cc(C)c2cc(C)c3nnc(SCC(=O)NCc4ccc5c(c4)OCO5)n3c2c1,13.1

row,SMILES,"hERG current change (%, negative = inhibition) at 1uM [%]"
1,CCC(Sc1nc2cc(OC)c(OC)cc2c(=O)n1CCc1ccc(OC)c(OC)c1)C(=O)NCCOC (centres unmarked),11.7
2,CC1(c2nnc(-c3ccc(Cl)cc3)o2)CC(c2cccc(Cl)c2)=NO1 (centres unmarked),15.3
3,Cc1cc(C)c(C(=O)OCCNC(=O)c2cccnc2)cc1C,9.66
4,COc1ccccc1NC(=O)CSc1sc2c(O)cc(=O)[nH]c2c1C#N,1.74
5,Cc1cccc(NC(=O)COC(=O)c2ccccc2SCC(=O)N2CCCC2)c1,0.686
6,COc1ccc(CC(CC(=O)O)C(=O)Nc2ccccc2)cc1 (centres unmarked),8.11
7,CC(OC(=O)c1ccc(-n2cnnn2)cc1)C(=O)Nc1ccccc1F (centres unmarked),-0.0303
8,C=CCn1c(SCC(=O)CC(=O)OCC)nc2cc(C(=O)N3CCC(C(N)=O)CC3)ccc2c1=O,13.1
9,CCCCOc1ccccc1/C=N/NC(=O)CC#N,11.3
10,CCCCCCN1C2=NCCCN2c2ccccc21.Cl,-73.7
11,Cc1cccc(S(=O)(=O)c2c(C)cc(C)[nH]c2=O)c1,18.8
12,CS(=O)(=O)N(CC(=O)NC1CCCCCC1)Cc1ccccc1,13.1
13,Cc1c(C(=O)N2CCN(c3ccccc3F)CC2)oc2c1C(=O)CC(C)(C)C2,2.1
14,Cc1cnc2cc(Cl)ccc2c1SCC(=O)O,9.4
15,CC(=O)c1cc(C#N)c(SCc2ccncc2)nc1C,-0.756
16,CN(C)N1C(N)=C(C#N)C(c2ccccc2F)C2=C1CC(C)(C)CC2=O (centres unmarked),17.1
17,C=CCn1c(SCC(=O)Nc2ccc(OC)cc2)nc2ccccc2c1=O,10.7
18,COC(=O)C1=C(c2cccc(OC)c2OC)C[C@@H]2CC[C@H]1N2C(=O)NC1CCCCC1,9.78
19,Cn1c(=O)c2c(nc(CN3CCC(C(N)=O)CC3)n2Cc2c(F)cccc2Cl)n(C)c1=O,12.8

row,SMILES,"hERG current change (%, negative = inhibition) at 1uM [%]"
1,COc1ccc(NC(=O)Cn2cnc3c(cnn3C(C)(C)C)c2=O)cc1OC,4.94
2,CN(C)c1ccc(NC(=O)C(=O)C2C(=O)Nc3ccccc32)cc1 (centres unmarked),4.32
3,O=C1CN(C(=O)CN2CCOCC2)C(c2ccccc2)c2cc(Br)ccc2N1 (centres unmarked),-4.77
4,O=C(CSc1ncnc2scc(-c3ccccc3)c12)Nc1ccc(C(=O)O)cc1,13.6
5,CCNC(=O)Oc1ccc[nH]c1=O,12.2
6,CC1(C(=O)N2CCC(CC3CC(c4cccc(Br)c4)=NO3)(C(=O)NCC3CCCCC3)CC2)CC1 (centres unmarked),5.87
7,CCOc1cc(C2c3c(n[nH]c3C)C(=O)N2c2ccc(C)cc2)ccc1O (centres unmarked),10.4
8,C=CCNC(=S)/N=c1/ccccn1C,3.83
9,CC(C)c1ccc(N2C(=O)NC(=O)/C(=C\c3cnc(-c4ccccc4)nc3)C2=O)cc1,9.59
10,Cc1[nH]c(=O)[nH]c(=O)c1CSc1nnc(CCCCCNC(=O)OC(C)(C)C)o1,6.66
11,CCOC(=O)c1c(C)[nH]c(C(=O)OCC(=O)c2c(N)n(C)c(=O)n(C)c2=O)c1C,10.4
12,c1coc(-c2nnc3sc(-c4cccs4)nn23)c1,11.4
13,Cc1ccnc(N/C=C(/NC(=O)c2ccccc2)C(=O)N/N=C\c2ccc(F)cc2)n1,-0.855
14,O=C(CC1NCCNC1=O)Nc1cc(Cl)cc(Cl)c1 (centres unmarked),12.9
15,COc1ccc(N2CCN(c3cc(=O)n(Cc4ccc(F)cc4)c(=O)[nH]3)CC2)cc1,3.3
16,Cc1ccc(NC(C)c2cc(Cl)ccc2O)cc1 (centres unmarked),18.7
17,Cc1cc(C)n(C(=O)c2cccc(S(=O)(=O)N3CCCC3)c2)n1,7.89
18,COc1cc2c(=O)n(CCC(=O)NCC3CCCO3)c(=O)n(CC(=O)Nc3ccc(F)cc3)c2cc1OC (centres unmarked),10.8
